# Laboratory results published in the supplement of paper PMC11417369.
# ± gives the standard deviation of the averaged measurements. Some of the results follow.
# System: PfAP2-LT AP2 domain (GST-tagged)
# Test: gcPBM binding intensity (ln(normalized median fluorescence intensity)); higher = stronger DNA binding
# Method in brief: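 GST-fused DNA-binding domains of P. falciparum, expressed in E. coli, were applied at about 25 μg on average for 1 h to an Agilent 4 × 180k array of primer-extended double-stranded 36-bp intergenic genomic probes and negative controls. Binding intensity is the highest Masliner-normalised natural-log median intensity across replicate spots of either probe orientation, measured with Alexa488 anti-GST antibody and a 488 nm scan.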
row,Sequence,gcPBM binding intensity (ln)
1,TTATTAAATAAAATCATGCACACAATATATATTTTA [CACACA_site2496],8.73 ± 0.48
2,GTTATTAAACAGAAAAGTACATATGTATATTAAAAT [XGTACX_site3724],9.07 ± 0.43
3,AAGAAAAAAGTTATTAGTACACATTATAATAAAAAG [XGTACX_site3527],8.76 ± 0.64
4,AATACTAAAAAGTGTACACATACATAAAAAATTGCA [CACACA_site5620],9.08 ± 0.51
5,TATTGATTTATAAACACACACTCGAAGATGTTTAAC [CACACA_site4760],8.86 ± 0.42
6,TAATTTTCTTTTTATCGTTTTTTTTTTTTTTTTTTT [XGTACX_negctrl_site432],8.38 ± 0.6
7,TATATATATGTAAATCGTACAAATTATATATATCAT [XGTACX_site2821],8.79 ± 0.36
8,TATATCTCATAGTATACACACACACCCACCCACATA [CACACA_site8513],9.9 ± 0.23
9,CATTATGTTGTAAATACACACATACATATACATACA [CACACA_site8143],9.06 ± 0.3
10,AGTGGAATGTATGATTTTCATTCCTTAAAATTTTAA [GTGCAC_negctrl_site521],8.45 ± 0.35
11,ACAAAAAAAATAAGCACACATATATATATATATATA [CACACA_site816],10.1 ± 0.38
12,ATATATATATATAAGCGTACGCGTAGTTAAATTAAT [XGTACX_site7693],9.23 ± 0.38
13,TATGTTATATTGGACACACACAATAAACATTATGTA [CACACA_site1657],9.04 ± 0.38
14,TAAAATATTTCAAAGGTGCAATGATAATTTAAGACG [GTGCAC_site9609],8.66 ± 0.42
15,AAATGAAAAATAAGGAAAAAAAAAAAAAAAAAAAAA [CACACA_negctrl_site1715],8.33 ± 0.37
16,ATATTGACAGGAAAAATTTTCTTTGAATCTTTAAAA [CACACA_negctrl_site1191],8.13 ± 0.42
17,TATTCAATACTTAATGCACACAATAAAAAAAATATG [CACACA_site2467],8.88 ± 0.46
18,ACGATAACATTTTTACGTACATATATTTTCACGGAG [XGTACX_site8764],8.79 ± 0.48
19,TACATGATAAGATGTAGTACATAAAAGAATAAATTA [XGTACX_site787],8.94 ± 0.55
20,TTTTCAAAAATATATACACACATGCATATTACGGTG [CACACA_site775],8.98 ± 0.43
21,CCACTAATTATGTGCACACAAATTAAAGGTCTACAA [CACACA_site4259],9.46 ± 0.32
22,GAAATAATTTTTATTTGTACACACATACATATATAT [XGTACX_site1862],9.3 ± 0.55
23,AAATTTTATAAAGGAACACACATTTTTTTTTTTTCT [CACACA_site2368],8.5 ± 0.41

row,Sequence,gcPBM binding intensity (ln)
1,TTATTCATTTCGAAAAGTACAAATTCTGTTTATTAT [XGTACX_site6892],8.47 ± 0.48
2,ATAATATTTATAAATTGTACTAATGTTCAATAATTA [XGTACX_site7284],8.35 ± 0.51
3,TTTTGTCGGAAATCGGATAAGAAGAAAAAAAATAAT [GTGCAC_negctrl_site594],8.56 ± 0.48
4,AAAAAAAAAAAATACGTGCACTATGATATATTATAT,8.88 ± 0.47
5,AAAAAAAAAAAAAGTACACACATACATATAAATATA [CACACA_site8533],9.01 ± 0.36
6,TTCACTCCATATTATACACACACACTAATGAAAAAA [CACACA_site8991],9.35 ± 0.28
7,AGTGAATATCTAAAATGTACATAAATAAATAAATAA [XGTACX_site8293],8.8 ± 0.54
8,CGTTATATCAAAGGAGTGCATTATGAATACGTTTTA [GTGCAC_site9837],8.66 ± 0.37
9,TTAAAATTTTTCAAAAGTACATAAATAATATATATT [XGTACX_site4694],8.23 ± 0.49
10,AATATATTATATATATGTACATAATGTGTAATACCT [XGTACX_site2845],8.93 ± 0.38
11,TTTTTTTTTGTTAAAGTGCATATATTAAATTTTCCT [GTGCAC_site9677],8.43 ± 0.4
12,GGAAAAAAATATAAAAGTACTTTTTATTTATTTTAT [XGTACX_site7418],8.4 ± 0.51
13,TTTATTTGTTCATGCGTGCACTTGATAACAATGTAC [GTGCAC_site9561],8.93 ± 0.4
14,AAAAAAAATTCATATTGTACTTTTAAATTAAAGAAA [XGTACX_site4521],8.07 ± 0.51
15,AAATTTTTTGTTCAATGTACTTTTTTATTATATTTT [XGTACX_site5298],8.76 ± 0.48
16,GATATATAATATAATACACACATTTTATGAATGTAA [CACACA_site24],8.85 ± 0.33
17,ATTTTTTAAATTTAAACACACATTTTGTATATGTTT [CACACA_site1654],8.99 ± 0.44
18,TCTACTATTATATATTGTACAAATGATACTTATATT [XGTACX_site1819],8.82 ± 0.43
19,AAAAAAAAAAAACATACACACATACATACAGATATA [CACACA_site4681],9.32 ± 0.36
20,TTTCACTACACAAATACACACAAAAATATATGTGCA [CACACA_site2632],9.12 ± 0.22
21,TTCTTTTTGAAACACACACACACAAGAAAATATATA [CACACA_site3110],9.65 ± 0.29
22,TTCTATTTTATATGTGCACACATATACACCCACAAA [CACACA_site1130],9.3 ± 0.33
23,TATAATTAAAATTTGTGTACGTATGACAAAACATTT [XGTACX_site7072],8.61 ± 0.45

row,Sequence,gcPBM binding intensity (ln)
1,AGATACAAGCACTATAGTACACATACTAAAAATATA [XGTACX_site5849],8.98 ± 0.47
2,TTTCCTTACCCTTTCCTGGTGTAGAAATTATACTCT [TGCATGCA_negctrl_site116],8.63 ± 0.52
3,AAAAAAATAACAAAAGTGCATTTTTATGAGTTATCT,8.65 ± 0.42
4,ATATATAATTAATAAAGTACATTAATTATTTCTTTT [XGTACX_site3034],8.4 ± 0.51
5,CATTTACCCTTATTAACACACAAAATAAAATACGCT [CACACA_site7249],8.9 ± 0.4
6,AAATAACAAAAGAAGGTGCTCATAAAAATTCATACA [GTGCAC_site9864],8.79 ± 0.5
7,AACAATAGTAAAAATACACACATTAAACTTCATTTC [CACACA_site2126],9.11 ± 0.36
8,AAAAAAAAAAAAAAAAAAAAAAAAAAAAAAAAAAAA [CACACA_negctrl_site204],8.765 ± 0.0071
9,AAATTATAAAAAAAAAAAAAAAAAAAAAAAAAAAAA [XGTACX_negctrl_site501],8.045 ± 0.05
10,ATACAATGATATATACATATATATATATATATATAT [TGCATGCA_negctrl_site359],9.93 ± 0.45
11,ATATATATATATCACGCACACACGAATTTTAAATAT [CACACA_site3131],9.46 ± 0.27
12,AAAAAAATTACGCAAGTGCATATAATTTAACAAAAA,8.65 ± 0.41
13,AATGGTAATCCACATACACACACACCGACACATATA [CACACA_site8876],9.91 ± 0.38
14,ATCGCGAAGTAGCATTCACACACAGCAAAATATATA [CACACA_site9162],9.47 ± 0.43
15,AACATTTATATAAAAGAACACACATATAAAATATTA [CACACA_site9199],8.87 ± 0.4
16,ATATATACAACTAAAGAACACACATCATTGTTCATT [CACACA_site9224],8.95 ± 0.4
17,AAACAATTTTTTAAAAGTACTTGAAAATTGTGAAAT [XGTACX_site2461],8.59 ± 0.54
18,ACAAAATTTTTAAGAACACACAAAAATGTACTATCG [CACACA_site2550],8.69 ± 0.45
19,GAAAGGACAAGAATAGTGCACATGCAATGTTATTTT [GTGCAC_site9985],9.21 ± 0.56
20,AATCATGCTCCGGAAAGTACATAAATAAATAAATAA [XGTACX_site1690],8.85 ± 0.56
21,AAAAAAAAAAAACATACACACATACATACATATATA [CACACA_site8222],9.26 ± 0.35
22,CACATACACATACAAACACACATTATGTATATATAT [CACACA_site1599],9.31 ± 0.42
23,CATATATAAATATGTACACACATATGTATGATCTCA [CACACA_site3868],9.07 ± 0.38

row,Sequence,gcPBM binding intensity (ln)
1,TTATTTATAAGTAATATTATATATTCTTTTAATACA [CACACA_negctrl_site471],8.32 ± 0.48
2,TTCTATATATTTGGAAGTACATTATATTTATTTTTT [XGTACX_site3172],8.51 ± 0.64
3,TAAAATTTTTGTTTTTGTACGAAACATCAATTTTAC [XGTACX_site4963],8.68 ± 0.5
4,AATGGTATAAACAATACACACATAATATAAATATTG [CACACA_site6878],9.03 ± 0.4
5,TTATATATAAATGTGTGTACTTATAAAATAATCATT [XGTACX_site5370],8.78 ± 0.43
6,AGATCTATTATTTTTTGTACTTATATATAAACTTAA [XGTACX_site1737],8.64 ± 0.44
7,ATAGGCAAAAAGTGTACACATTCATTTATATAAATA [CACACA_site4480],8.93 ± 0.44
8,ATACATATATGTGTGTGTACATAAATGTATATATTT [XGTACX_site6242],9.53 ± 0.38
9,GCATGGAACCATATATGTACATATATAAATAAATAA [XGTACX_site4996],8.91 ± 0.5
10,AACTTTATTCCTAATTGTACACATATATATATATAT [XGTACX_site6823],9.2 ± 0.3
11,GTATCTTTCAAAATATGTACATATATATATGTGTGT [XGTACX_site3512],9.31 ± 0.32
12,ATTATACATATGTATGCACACATACATACACATATA [CACACA_site9155],9.22 ± 0.31
13,AATAGTAAAAGATATACACACACCAAAAAATAGAAT [CACACA_site2289],9.86 ± 0.51
14,TAATTTAAGAAAAAATGTACACAAATATAATAATAG [XGTACX_site8317],8.79 ± 0.56
15,ATATATATATGTTTATGTACTTATAATAATATAACT [XGTACX_site4828],8.71 ± 0.36
16,AAAAAAAATATCTATGCATGTAATATTATGATATTG [TGCATGCA_site546],8.63 ± 0.26
17,TAACATTAAAATAAAAGTACTTAATAATATTAAGTA [XGTACX_site5920],8.54 ± 0.43
18,TTAATAATAAATGAAAGTACATATAAAAAAAAAAAA [XGTACX_site717],8.66 ± 0.33
19,CGTATAACATATGACACACACACATACATACACAAA [CACACA_site1803],9.84 ± 0.28
20,GATTTATATAATTCAAGTACTAAAAATATTTTTAAT [XGTACX_site5285],8.3 ± 0.4
